Measurements as given in the supplement of paper PMC10369915.
This is one part of the list. No stated cut-off is given here; in the data, active = 3.2 or more and inactive = the rest. Only a few entries rise above the background.

Target: SHP2 C-SH2 domain E139D
Test: enrichment score (SH2-bound / input frequency) (ratio); bacterial display of known human phosphotyrosine sites (pTyr-Var adds point mutants) read by sequencing; higher = stronger binding; tyrosines were phosphorylated by kinases first
Conditions: peptide library: pTyr-Var
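Further: displayed peptides selected on beads carrying the immobilized SH2 domain, with library peptides lacking any tyrosine serving as negative controls.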

Enrichment score, active:
HAVFVCDICHV [TWNK_Y508_Y508C_YF] 3.91

Enrichment score, inactive:
DNEAIYDICRR [TUBA4A_Y210] 0.699, DNEAIYDICRC [TUBA4A_Y210_R215C] 0.961, ACCLLYHGDVV [TUBA4A_Y319_R320H] 1.95, NTDETYCIDNE [TUBB2B_Y200] 0.69, NTDETYSIDNE [TUBB2B_Y200_C201S] 0.474, DNEALYDICFR [TUBB2B_Y208] 0.844, DNEALYDTCFR [TUBB2B_Y208_I210T] 0.633, DLVSEYQQYQD [TUBB3_Y422] 0.613, NLVSEYQQYQD [TUBB3_Y422_D417N] 0.824, NLVSEYQQFQD [TUBB3_Y422_D417N_YF] 0.828, DKNSSYFADWL [TUBB8_Y340] 0.889, GCVSKYSGVFS [TUBGCP6_Y1624] 1.07, GCLSKYSGVFS [TUBGCP6_Y1624_V1621L] 1.24, HAVYVCDICHV [TWNK_Y508_Y508C] 3.14, VAVVDYVEPSP [TXNRD2_Y70] 0.796, VSVVDYVEPSP [TXNRD2_Y70_A66S] 0.663, NTQRPYYKGGG [TYROBP_Y111] 0.953

Target: SHP2 C-SH2 domain wild-type
Test: as above
Conditions: peptide library: pTyr-Var

Enrichment score, inactive:
DNEAIYDICRR [TUBA4A_Y210] 0.842, DNEAIYDICRC [TUBA4A_Y210_R215C] 0.942, ACCLLYHGDVV [TUBA4A_Y319_R320H] 1.74, NTDETYCIDNE [TUBB2B_Y200] 0.574, NTDETYSIDNE [TUBB2B_Y200_C201S] 0.564, DNEALYDICFR [TUBB2B_Y208] 1.34, DNEALYDTCFR [TUBB2B_Y208_I210T] 0.788, DLVSEYQQYQD [TUBB3_Y422] 0.578, NLVSEYQQYQD [TUBB3_Y422_D417N] 0.725, NLVSEYQQFQD [TUBB3_Y422_D417N_YF] 0.685, DKNSSYFADWL [TUBB8_Y340] 0.931, GCVSKYSGVFS [TUBGCP6_Y1624] 1.73, GCLSKYSGVFS [TUBGCP6_Y1624_V1621L] 1.05, HAVYVCDICHV [TWNK_Y508_Y508C] 3.1, HAVFVCDICHV [TWNK_Y508_Y508C_YF] 2.85, VAVVDYVEPSP [TXNRD2_Y70] 0.567, VSVVDYVEPSP [TXNRD2_Y70_A66S] 0.679, NTQRPYYKGGG [TYROBP_Y111] 1.16

Target: SHP2 N-SH2 domain L43F
Test: as above
Conditions: peptide library: pTyr-Var

Enrichment score, inactive:
DNEAIYDICRR [TUBA4A_Y210] 0.768, DNEAIYDICRC [TUBA4A_Y210_R215C] 0.913, ACCLLYHGDVV [TUBA4A_Y319_R320H] 1.68, NTDETYCIDNE [TUBB2B_Y200] 0.594, NTDETYSIDNE [TUBB2B_Y200_C201S] 0.501, DNEALYDICFR [TUBB2B_Y208] 1.01, DNEALYDTCFR [TUBB2B_Y208_I210T] 0.66, DLVSEYQQYQD [TUBB3_Y422] 0.649, NLVSEYQQYQD [TUBB3_Y422_D417N] 0.882, NLVSEYQQFQD [TUBB3_Y422_D417N_YF] 0.795, DKNSSYFADWL [TUBB8_Y340] 0.993, GCVSKYSGVFS [TUBGCP6_Y1624] 1.14, GCLSKYSGVFS [TUBGCP6_Y1624_V1621L] 0.913, HAVYVCDICHV [TWNK_Y508_Y508C] 2.79, VAVVDYVEPSP [TXNRD2_Y70] 0.789, VSVVDYVEPSP [TXNRD2_Y70_A66S] 0.735, NTQRPYYKGGG [TYROBP_Y111] 0.84

Enrichment score, active:
HAVFVCDICHV [TWNK_Y508_Y508C_YF] 3.37

Target: SHP2 N-SH2 domain T42A
Test: as above
Conditions: peptide library: pTyr-Var

Enrichment score, inactive:
DNEAIYDICRR [TUBA4A_Y210] 0.85, DNEAIYDICRC [TUBA4A_Y210_R215C] 0.651, ACCLLYHGDVV [TUBA4A_Y319_R320H] 1.06, NTDETYCIDNE [TUBB2B_Y200] 0.57, NTDETYSIDNE [TUBB2B_Y200_C201S] 0.626, DNEALYDICFR [TUBB2B_Y208] 0.843, DNEALYDTCFR [TUBB2B_Y208_I210T] 0.523, DLVSEYQQYQD [TUBB3_Y422] 0.582, NLVSEYQQYQD [TUBB3_Y422_D417N] 0.63, NLVSEYQQFQD [TUBB3_Y422_D417N_YF] 0.675, DKNSSYFADWL [TUBB8_Y340] 0.882, GCVSKYSGVFS [TUBGCP6_Y1624] 1.03, GCLSKYSGVFS [TUBGCP6_Y1624_V1621L] 0.885, HAVYVCDICHV [TWNK_Y508_Y508C] 2.4, HAVFVCDICHV [TWNK_Y508_Y508C_YF] 2.59, VAVVDYVEPSP [TXNRD2_Y70] 0.833, VSVVDYVEPSP [TXNRD2_Y70_A66S] 0.533, NTQRPYYKGGG [TYROBP_Y111] 0.805

Target: SHP2 N-SH2 domain T52S
Test: as above
Conditions: peptide library: pTyr-Var

Enrichment score, inactive:
DNEAIYDICRR [TUBA4A_Y210] 0.596, DNEAIYDICRC [TUBA4A_Y210_R215C] 1.12, ACCLLYHGDVV [TUBA4A_Y319_R320H] 1.56, NTDETYCIDNE [TUBB2B_Y200] 0.618, NTDETYSIDNE [TUBB2B_Y200_C201S] 0.494, DNEALYDICFR [TUBB2B_Y208] 0.831, DNEALYDTCFR [TUBB2B_Y208_I210T] 0.576, DLVSEYQQYQD [TUBB3_Y422] 0.641, NLVSEYQQYQD [TUBB3_Y422_D417N] 0.823, NLVSEYQQFQD [TUBB3_Y422_D417N_YF] 0.885, DKNSSYFADWL [TUBB8_Y340] 0.97, GCVSKYSGVFS [TUBGCP6_Y1624] 1.07, GCLSKYSGVFS [TUBGCP6_Y1624_V1621L] 0.884, HAVYVCDICHV [TWNK_Y508_Y508C] 2.95, VAVVDYVEPSP [TXNRD2_Y70] 0.76, VSVVDYVEPSP [TXNRD2_Y70_A66S] 0.828, NTQRPYYKGGG [TYROBP_Y111] 0.724

Enrichment score, active:
HAVFVCDICHV [TWNK_Y508_Y508C_YF] 3.3

Target: SHP2 N-SH2 domain wild-type
Test: as above
Conditions: peptide library: pTyr-Var

Enrichment score, inactive:
DNEAIYDICRR [TUBA4A_Y210] 0.907, DNEAIYDICRC [TUBA4A_Y210_R215C] 0.853, ACCLLYHGDVV [TUBA4A_Y319_R320H] 1.55, NTDETYCIDNE [TUBB2B_Y200] 0.769, NTDETYSIDNE [TUBB2B_Y200_C201S] 0.746, DNEALYDICFR [TUBB2B_Y208] 1.41, DNEALYDTCFR [TUBB2B_Y208_I210T] 0.723, DLVSEYQQYQD [TUBB3_Y422] 0.742, NLVSEYQQYQD [TUBB3_Y422_D417N] 0.81, NLVSEYQQFQD [TUBB3_Y422_D417N_YF] 0.874, DKNSSYFADWL [TUBB8_Y340] 0.912, GCVSKYSGVFS [TUBGCP6_Y1624] 1.31, GCLSKYSGVFS [TUBGCP6_Y1624_V1621L] 0.962, HAVYVCDICHV [TWNK_Y508_Y508C] 2.7, HAVFVCDICHV [TWNK_Y508_Y508C_YF] 2.29, VAVVDYVEPSP [TXNRD2_Y70] 0.812, VSVVDYVEPSP [TXNRD2_Y70_A66S] 0.694, NTQRPYYKGGG [TYROBP_Y111] 0.889
